{"source": "PubChem BioAssay AID1508642", "about": "(National Center for Advancing Translational Sciences (NCATS), 2021)", "note": "About 200 (0.47%) of roughly 43,000 compounds were called active. The shares of active, inactive and inconclusive entries below differ from those in the screen. The call rests on the fitted dose curve; in most records, active means well fitted cell-killing curve with a large enough effect; inconclusive means small, poorly fitted or top-dose-only effect, or effect the other way; inactive means flat fitted curve, though single readings scatter. A potency beside an inconclusive call is a rough fit, not a confirmed value. Potency means the concentration at half of the fitted maximal effect; tags describe the fitted curve by direction and shape."}
{"test": "Cell viability qHTS assay in S16 Pmp22-F2sN cells; further: nearly all actives have a fitted effect of over 65% in size", "settings": "S16 Pmp22-F2sN Schwann cells (luciferase reporters placed in the Pmp22 gene) viability, CellTiter-Glo, 24 h; series mostly up to 57.5 µM", "outline": "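Rat S16 Schwann reporter line, 24 h treatment with library compounds delivered at 23 nL per well. Cell viability by CellTiter-Glo luminescence.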"}
{"smiles": "Cc1ccc2c(c1)N(CCCC(=O)NCc1cccc(F)c1)C(=O)CO2", "Potency": "inconclusive: 0.224 µM [cytotoxic, full curve, poor fit]"}
{"smiles": "O=C(CSc1c2c(nc3cc(Cl)ccc13)CCCC2)NCc1ccccc1Cl", "Potency": "inconclusive: 25.1 µM [cytotoxic, single point]"}
{"smiles": "CC(=O)c1cccc(NC(=O)c2cc3c(s2)-c2c(C)cccc2OC3)c1", "Potency": "inconclusive: 3.16 µM [cytotoxic, partial curve, poor fit]"}
{"smiles": "Cc1cc(=O)n(CC(=O)N2CCN(c3ccc(F)cc3)CC2)c2c1c(C)nn2C", "Potency": "inconclusive: 28.2 µM [cytotoxic, single point]"}
{"smiles": "CC(=O)c1ccc(N2CCN(C(=O)CCS(=O)(=O)c3ccc4c(c3)oc(=O)n4C)CC2)cc1", "Potency": "inconclusive: 1 µM [cytotoxic, full curve, poor fit]"}
{"smiles": "CC(Oc1ccccc1F)C(=O)Nc1ccc(-c2nc3ccccc3s2)cc1", "note": "(centres undefined)", "Potency": "inconclusive: 14.1 µM [rising, partial curve, poor fit]"}
{"smiles": "CN1CCN(C(CNC(=O)C(=O)Nc2cccc(Cl)c2)c2ccc3c(c2)OCO3)CC1", "note": "(centres undefined)", "Potency": "inconclusive: 35.5 µM [cytotoxic, single point]"}
{"smiles": "CC1=C(C(=O)Nc2ccc(C)cc2C)C(c2ccccc2F)n2nc(SCC(=O)c3ccc(C)cc3)nc2N1", "note": "(centres undefined)", "Potency": "inconclusive: 11.2 µM [cytotoxic, partial curve]"}
{"smiles": "COc1ccccc1NC(=O)C1CCC(CNS(=O)(=O)c2ccc3c(c2)CC(C)N3C(C)=O)CC1", "note": "(centres undefined)", "Potency": "inconclusive: 12.6 µM [cytotoxic, partial curve, poor fit]"}
{"smiles": "COc1ccc(C)cc1NC(=O)c1ccc2c(c1)nnn2C1CCCC1", "Potency": "inconclusive: 25.1 µM [cytotoxic, single point]"}
{"smiles": "Cc1ccc(NC(=O)Cn2c(=O)n(Cc3ccc4c(c3)OCO4)c(=O)c3ccc(C(=O)NC4CCCCC4)cc32)c(C)c1", "Potency": "inactive"}
{"smiles": "Cn1c(SCc2ccccc2F)nc2c([nH]c3ccccc32)c1=O", "Potency": "inactive"}
{"smiles": "COCCN(CCOC)c1ncnc2c1c(-c1ccccc1)cn2-c1ccc(C)c(Cl)c1", "Potency": "inconclusive: 35.5 µM [cytotoxic, partial curve, poor fit]"}
{"smiles": "CCCCNC(=O)C(CC)Sc1nc2ccccc2c(=O)n1CCc1ccc(OC)c(OC)c1", "note": "(centres undefined)", "Potency": "inconclusive: 12.6 µM [cytotoxic, partial curve]"}
{"smiles": "CC(=O)N1CCc2c(sc3c2c(=O)n(Cc2ccccc2)c(=O)n3CC(=O)Nc2ccc(C)c(F)c2)C1", "Potency": "inconclusive: 39.8 µM [cytotoxic, single point]"}
{"smiles": "Cc1ccc(-c2nn3c(=O)cc(CN4CCN(C(=O)Nc5cc(Cl)ccc5C)CC4)nc3s2)cc1", "Potency": "inconclusive: 7.94 µM [cytotoxic, single point]"}
{"smiles": "CCCN(CCC)CC(O)Cn1cc(/C=C/C(=O)c2ccc(OCC)cc2)c2ccccc21", "note": "(centres undefined)", "Potency": "inconclusive: 39.8 µM [cytotoxic, single point]"}
{"smiles": "Cc1ccccc1CSc1nc2cccnc2n1Cc1ccc(C(=O)NCCc2cccs2)cc1", "Potency": "inconclusive: 15.8 µM [cytotoxic, single point]"}
{"smiles": "CCCCCn1c(=N)n(CC(O)COc2cccc(C)c2)c2ccccc21", "note": "(centres undefined)", "Potency": "inconclusive: 39.8 µM [cytotoxic, single point]"}
{"smiles": "O=C(Nc1ccccc1C(F)(F)F)N1CCN(c2ccc3nnc(-c4ccc(F)cc4)n3n2)CC1", "Potency": "inactive"}
{"smiles": "CCC(C(=O)NCCCN(CC)CC)n1ncn2c(cc3occc32)c1=O", "note": "(centres undefined)", "Potency": "inconclusive: 39.8 µM [rising, partial curve, poor fit]"}
{"smiles": "Cc1cccc(-c2nnc(SCC(=O)NC3CCCCC3)o2)c1", "Potency": "inactive"}
{"smiles": "Cc1ccccc1Nc1c(-c2ccccc2O)nc2sccn12", "Potency": "inactive"}
{"smiles": "COc1cc(C2C(C(=O)Nc3ccc(C)cc3C)=C(C)Nc3nc(SCc4ccccc4)nn32)cc(OC)c1OC", "note": "(centres undefined)", "Potency": "inconclusive: 7.08 µM [cytotoxic, single point]"}
{"smiles": "CC1=C(C(=O)OC2CCCCCC2)C(c2ccccc2Cl)CC(=O)N1", "note": "(centres undefined)", "Potency": "inconclusive: 31.6 µM [rising, partial curve, poor fit]"}
{"smiles": "Cc1ccc(-n2c(SCc3nc(-c4ccc(Cl)cc4)no3)nnc2-c2ccncc2)cc1", "Potency": "inconclusive: 39.8 µM [cytotoxic, single point]"}
{"smiles": "CCC(=O)N1CCc2cc(S(=O)(=O)CCC(=O)NCc3ccccc3Cl)ccc21", "Potency": "inconclusive: 39.8 µM [rising, partial curve, poor fit]"}
{"smiles": "Clc1ccccc1CSc1nncn2c1cc1occc12", "Potency": "inconclusive: 39.8 µM [cytotoxic, partial curve, poor fit]"}
{"smiles": "COc1ccc(NC(=O)C2CCC(CNS(=O)(=O)c3csc(C(N)=O)c3)CC2)cc1", "note": "(centres undefined)", "Potency": "inconclusive: 10 µM [cytotoxic, partial curve]"}
{"smiles": "CCN(CC)CCOC(=O)c1ccc(NC(=O)CSc2cc(=O)n(CC)c3ccccc23)cc1", "Potency": "inconclusive: 31.6 µM [cytotoxic, single point]"}
{"smiles": "CCCOc1cccc(C(=O)Nc2ccc(-c3cc4ccccc4oc3=O)c(C)c2)c1", "Potency": "inconclusive: 25.1 µM [cytotoxic, partial curve, poor fit]"}
{"smiles": "COc1ccccc1N=c1scc(-c2ccc(S(=O)(=O)N3CCCC3)cc2)n1C", "Potency": "inconclusive: 25.1 µM [cytotoxic, single point]"}
{"smiles": "CCc1ccc(-c2nc(CSCC(=O)N3CCN(c4ccc(F)cc4)CC3)c(C)o2)cc1", "Potency": "inconclusive: 10 µM [cytotoxic, partial curve, poor fit]"}
{"smiles": "COc1ccc(Nc2cc(C(=O)NCCCN(C)Cc3ccccc3)c3ccccc3n2)cc1", "Potency": "inconclusive: 31.6 µM [cytotoxic, single point]"}
{"smiles": "CCOc1cc(C2Sc3ccccc3NC3=C2C(=O)c2ccccc23)ccc1O", "note": "(centres undefined)", "Potency": "inconclusive: 39.8 µM [cytotoxic, partial curve, poor fit]"}
{"smiles": "COc1ccc(C(=O)Nc2ccccc2-c2nc3ccccc3s2)c(OC)c1", "Potency": "inactive"}
{"smiles": "CC(C)OCCCNC(=O)CSc1c2c(nc3ccc(Cl)cc13)CCCC2", "Potency": "inconclusive: 25.1 µM [cytotoxic, single point]"}
{"smiles": "CC(=O)c1ccc(NC(=O)CSc2nc(C3CCCC3)nc3c2c(=O)n(C)c(=O)n3C)cc1", "Potency": "inconclusive: 15.8 µM [cytotoxic, partial curve]"}
{"smiles": "CCOC(=O)N1CCN(Cc2nc3cc(NC(=O)c4ccccc4OC)ccc3n2C(C)C)CC1", "Potency": "inconclusive: 3.16 µM [cytotoxic, partial curve, poor fit]"}
{"smiles": "Cc1ccc(-n2c(=O)c3ccc(C(=O)NCc4ccco4)cc3n(Cc3ccc(Cl)cc3)c2=O)cc1", "Potency": "inconclusive: 39.8 µM [cytotoxic, single point]"}
{"smiles": "COc1ccc(CNC(=O)c2nc(S(=O)(=O)Cc3ccccc3)ncc2Cl)cc1", "Potency": "active: 5.62 µM"}
{"smiles": "O=C(Nc1cccc(Br)c1)c1cc(-c2ccc3c(c2)OCCO3)on1", "Potency": "inactive"}
{"smiles": "CN1CCSc2ccc(C(=O)NCc3ccccc3)cc21", "Potency": "inconclusive: 44.7 µM [cytotoxic, single point]"}
{"smiles": "Cc1cccc(CCNC(=O)c2cc3c(s2)-c2c(C)cccc2OC3)c1", "Potency": "inconclusive: 22.4 µM [cytotoxic, partial curve, poor fit]"}
{"smiles": "CCOC(=O)c1nc(Nc2ccc(C(=O)OC(C)C)cc2)c2ccccc2n1", "Potency": "inconclusive: 35.5 µM [cytotoxic, single point]"}
{"smiles": "COc1ccc(Cl)cc1NC(=O)Cn1ccn(-c2cc(C)cc(C)c2)c(=O)c1=O", "Potency": "inconclusive: 31.6 µM [cytotoxic, single point]"}
{"smiles": "Cc1ccccc1CNC(=O)CCS(=O)(=O)c1cc2c3c(c1)CCN3C(=O)CC2", "Potency": "inconclusive: 44.7 µM [rising, partial curve, poor fit]"}
{"smiles": "CC1CCCN(CCCNC(=O)c2ccc3c(c2)N(Cc2ccc(Cl)cc2)C(=O)c2ccccc2S3(=O)=O)C1", "note": "(centres undefined)", "Potency": "inconclusive: 25.1 µM [cytotoxic, single point]"}
{"smiles": "Fc1ccc(-n2ncc3c(Nc4cccc(Cl)c4)ncnc32)cc1", "Potency": "inconclusive: 39.8 µM [cytotoxic, single point]"}
{"smiles": "CSc1ncc(Cl)c(C(=O)N(Cc2ccc(C)cc2)C2CCS(=O)(=O)C2)n1", "note": "(centres undefined)", "Potency": "inconclusive: 3.16 µM [cytotoxic, full curve]"}
{"smiles": "CCOC(=O)N1CCN(Cc2nc3cc(NC(=O)c4cccc(C)c4)ccc3n2C(C)C)CC1", "Potency": "inconclusive: 17.8 µM [cytotoxic, partial curve, poor fit]"}
{"smiles": "CCOCc1cc(CN2CCN(c3ccccc3OC)CC2)c(O)c2ncccc12", "Potency": "active: 3.16 µM"}
{"smiles": "CCOc1ccc(NC(=O)CSc2oc(-c3ccccc3)nc2S(=O)(=O)c2ccc(Cl)cc2)cc1", "Potency": "inactive"}
{"smiles": "Oc1ccccc1Nc1nc2ccccc2n2nnnc12", "Potency": "inactive"}
{"smiles": "O=C(Cn1c(=O)n(Cc2nc(-c3ccccc3)no2)c(=O)c2ccccc21)Nc1cccc(Cl)c1", "Potency": "inconclusive: 39.8 µM [cytotoxic, single point]"}
{"smiles": "Cc1ccc(C)c(Nc2nnc(-c3ccc(C)c(S(=O)(=O)NCC4CCCO4)c3)c3ccccc23)c1", "note": "(centres undefined)", "Potency": "inconclusive: 22.4 µM [cytotoxic, single point]"}
{"smiles": "COc1cccc(NC(=O)C2CCCN(S(=O)(=O)c3cccc4nonc34)C2)c1", "note": "(centres undefined)", "Potency": "inconclusive: 39.8 µM [rising, single point]"}
{"smiles": "CCOC(=O)c1c(NC(=O)CSc2cn(CCNC(=O)c3c(F)cccc3F)c3ccccc23)sc2c1CCC2", "Potency": "inconclusive: 0.562 µM [cytotoxic, full curve, poor fit]"}
{"smiles": "COc1ccc(CCN2C(=O)c3[nH]nc(-c4ccccc4O)c3C2c2ccc(OC)c(OC)c2)cc1", "note": "(centres undefined)", "Potency": "inconclusive: 35.5 µM [cytotoxic, single point]"}
